Molecules are shown by their SMILES. The campaign covered roughly 310,000 compounds. About 14,000 (4.5%) showed an effect of 50% or more. Effects have a minus sign here. The list shows a part of the results.
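Also: peak tail current of the secondary pulse compared with the same well before compound.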

human ether-à-go-go-related gene (hERG) potassium channel, sequence (Q12809 whole entry, looked up): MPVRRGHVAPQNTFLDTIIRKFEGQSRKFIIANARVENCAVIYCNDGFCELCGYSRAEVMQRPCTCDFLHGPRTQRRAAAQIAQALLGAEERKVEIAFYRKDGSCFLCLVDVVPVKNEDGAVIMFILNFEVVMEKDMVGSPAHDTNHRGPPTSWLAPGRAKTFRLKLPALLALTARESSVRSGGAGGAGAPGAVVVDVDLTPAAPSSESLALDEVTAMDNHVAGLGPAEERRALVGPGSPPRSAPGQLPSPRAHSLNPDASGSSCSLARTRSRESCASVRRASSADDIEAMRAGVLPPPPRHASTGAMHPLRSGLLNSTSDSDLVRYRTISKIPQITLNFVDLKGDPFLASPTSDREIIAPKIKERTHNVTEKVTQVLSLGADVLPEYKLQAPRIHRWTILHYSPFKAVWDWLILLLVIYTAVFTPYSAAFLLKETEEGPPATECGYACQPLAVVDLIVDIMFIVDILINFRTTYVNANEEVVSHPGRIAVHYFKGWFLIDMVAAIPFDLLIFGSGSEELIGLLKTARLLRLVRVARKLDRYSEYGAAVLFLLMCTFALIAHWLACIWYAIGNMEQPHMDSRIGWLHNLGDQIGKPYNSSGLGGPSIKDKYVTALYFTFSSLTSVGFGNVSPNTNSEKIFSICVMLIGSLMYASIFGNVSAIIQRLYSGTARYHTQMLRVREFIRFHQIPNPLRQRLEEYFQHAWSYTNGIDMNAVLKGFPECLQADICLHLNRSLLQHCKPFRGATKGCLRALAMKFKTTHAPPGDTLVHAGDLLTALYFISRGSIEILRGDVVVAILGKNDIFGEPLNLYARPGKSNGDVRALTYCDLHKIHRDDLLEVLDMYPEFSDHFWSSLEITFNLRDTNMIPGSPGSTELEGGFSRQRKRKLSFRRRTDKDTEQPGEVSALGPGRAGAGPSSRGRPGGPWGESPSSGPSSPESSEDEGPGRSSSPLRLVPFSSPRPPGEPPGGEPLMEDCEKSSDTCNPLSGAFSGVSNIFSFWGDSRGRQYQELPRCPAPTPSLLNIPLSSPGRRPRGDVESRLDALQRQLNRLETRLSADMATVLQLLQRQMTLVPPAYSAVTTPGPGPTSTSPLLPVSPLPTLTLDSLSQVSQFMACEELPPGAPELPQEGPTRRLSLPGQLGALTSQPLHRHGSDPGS

The experiment concerns the target human ether-à-go-go-related gene (hERG) potassium channel (human, UniProt Q12809). The experiment in a line: primary screen, population patch clamp on CHO cells stably expressing hERG.
On to `COc1ccc(CN2CCN(Cc3ccc(Br)cc3)CC2)c(OC)c1OC.O=C(O)C(=O)O`, for which the “hERG current change (%, negative = inhibition) at 10uM” value was -69.7%.

With `COc1ccc(-c2csc(NC(=O)Cc3ccccc3)n2)cc1OC`, the “hERG current change (%, negative = inhibition) at 10uM” value turned out to be 14.4%.

`O=C(NCc1ccccc1Cl)C1CCN(C(=O)c2ccco2)CC1`: the “hERG current change (%, negative = inhibition) at 10uM” value is listed as 1.42%. On to `c1ccc2c(c1)[nH]c1c(N3CCOCC3)ncnc12`, for which the “hERG current change (%, negative = inhibition) at 10uM” value amounted to 1.81%.

For the compound `CCNCC(=O)Nc1c(C)cccc1C`, the “hERG current change (%, negative = inhibition) at 10uM” value was 17.1%.

In the case of `CCCCNC(=O)CCC(=O)Nc1ncc(-c2ccc(C)cc2)n1C`, the “hERG current change (%, negative = inhibition) at 10uM” value was -2.96%. `O=C(CN(Cc1ccco1)C(=O)Cn1nnc(-c2cccs2)n1)NCc1ccccc1`: the “hERG current change (%, negative = inhibition) at 10uM” value is -51.7%. As for `CCc1ccc(NC(=O)CCCN2C(=O)C3CC=CCC3C2=O)cc1` (centres unmarked), the figure is -17.2%; as for `Cc1cc(C)c(S(=O)(=O)Nc2ccc(O)cc2)c(C)c1`, -5.27%.

As to `c1csc(-c2noc(COc3ccc4c(c3)CCCC4)n2)c1`, the “hERG current change (%, negative = inhibition) at 10uM” value was determined as 10.7%. Turning to `O=C(NCC1CCCO1)c1cc(-c2ccco2)nc2ccccc12` (centres unmarked), the “hERG current change (%, negative = inhibition) at 10uM” value was 11.3%.

Consider `O=C(CN1CCOCC1)Nc1cc(C(F)(F)F)ccc1Cl`, for which the “hERG current change (%, negative = inhibition) at 10uM” value is on record as -0.356%.

`C[C@@H]1C=C[C@](Cc2ccccc2)(C(=O)NCC2CC2)N1C(=O)c1ccccc1`: the “hERG current change (%, negative = inhibition) at 10uM” value was -2.49%. As to `CCOc1cccc2cc(-c3csc(NC(=O)CCC(=O)NCCN4CCCCC4C)n3)c(=O)oc12` (centres unmarked), the “hERG current change (%, negative = inhibition) at 10uM” value was -34.9%. As to `CCN(CC(=O)NCc1ccc(F)cc1)C(=O)c1ccc(C(=O)c2ccccc2)cc1`, the “hERG current change (%, negative = inhibition) at 10uM” value is -42.3%. Regarding `CCOc1ccc(CCNC(=O)C2CCN(C(=O)N(C)C)CC2)cc1OCC`, the “hERG current change (%, negative = inhibition) at 10uM” value was found to be 14.2%. Regarding `O=C(COC(=O)c1cnccn1)Nc1ccccc1-c1ccccc1`, the “hERG current change (%, negative = inhibition) at 10uM” value worked out at 17.7%. With `COc1cc(SC)ccc1C(=O)NC1CCCc2ccccc21` (centres unmarked), the “hERG current change (%, negative = inhibition) at 10uM” value worked out at 9.46%.

`C1=C(c2ccccc2)Nc2nnnn2C1`: the “hERG current change (%, negative = inhibition) at 10uM” value turned out to be 16.6%. As for `Cc1[nH]n(-c2ccccc2)c(=O)c1C(C[N+](=O)[O-])c1ccc(F)cc1` (centres unmarked), the figure is 10.4%; as for `COC(=O)C1=C(c2cccc(OCc3ccccc3)c2)C[C@@H]2CC[C@H]1N2C(=O)NCCc1ccc(F)cc1`, -13.4%. In the case of `O=C(Nc1ccccn1)C1CCN(S(=O)(=O)c2ccc3c(c2)OCCCO3)CC1`, the “hERG current change (%, negative = inhibition) at 10uM” value is -0.164%. `Cc1cccc(NC(=O)NC(C)C(c2ccccc2)N2CCN(C)CC2)c1` (centres unmarked): the “hERG current change (%, negative = inhibition) at 10uM” value is recorded as -36.5%.

For `Cc1ccc(C(=O)N/C(=C/c2cccnc2)C(=O)NCc2ccco2)cc1`, the “hERG current change (%, negative = inhibition) at 10uM” value is recorded as -41.7%. With `CC1COC(=O)C(NNc2ccc(Cl)c(Cl)c2)=N1` (centres unmarked), the “hERG current change (%, negative = inhibition) at 10uM” value is recorded as 27.3%. Then `CC(=O)Nc1ccc(Sc2ncnc3scc(-c4ccccc4)c23)cc1`, with 2.58%; and `O=S1(=O)CCN(Cc2cccc(Cl)c2)CC1`, with 1.06%; and `COc1ccccc1N1CCN(Cc2nc3ccccc3c(=O)n2CC(C)=O)CC1`, with -9.71%. For the compound `COc1cccc(NC(=O)Nc2nnc(N3CCCCC3C)s2)c1` (centres unmarked), the “hERG current change (%, negative = inhibition) at 10uM” value is on record as 0.237%. Regarding `Cc1ccc2c(c1)cc(CN(Cc1ccc3c(c1)OCO3)C(=O)c1cnccn1)c1nnnn12`, the “hERG current change (%, negative = inhibition) at 10uM” value is on record as -45.7%. Consider `Cn1c(=O)[nH]c(=O)c2c1nc(CN1CCOCC1)n2CCCO`, for which the “hERG current change (%, negative = inhibition) at 10uM” value came out at 5.76%. For `Cc1ccn2c(Nc3ccccc3C)c(-c3cccnc3)nc2c1`, the “hERG current change (%, negative = inhibition) at 10uM” value is listed as -10.3%. On to `CCOC(=O)N1CCN(c2c(NC3CCN(Cc4ccccc4)CC3)c(=O)c2=O)CC1`, for which the “hERG current change (%, negative = inhibition) at 10uM” value is given as 7.18%. `CC(C)OC(=O)C1C2c3ccccc3C(c3ccccc32)C1C(=O)O` (centres unmarked): the “hERG current change (%, negative = inhibition) at 10uM” value came out at 15.9%.

Take `CC(C)CN(C(=O)COc1ccc2ccc(=O)oc2c1)C1CCS(=O)(=O)C1` (centres unmarked): the “hERG current change (%, negative = inhibition) at 10uM” value stood at 12%. As for `Cc1ccnc(NS(=O)(=O)c2ccc(NC(=O)C34CC5CC(CC(C5)C3)C4)cc2)n1`, the figure is 4.75%; as for `Cc1ccc2c(c1)NC(=O)[C@@]1(C)[C@@H](c3ccccc3)[C@H]3COc4ccccc4[C@@H]3N1C2=O`, 12.3%; as for `O=C1C2CCCN2C(c2cccnc2)N1c1ccc(Cl)cc1` (centres unmarked), -16.3%. In the case of `C[C@@H]1CCC2[C@](C)(CO)[C@@H](O)CC[C@]2(C)[C@@]12C[C@](CO)(CC(=O)[O-])CO2.O` (some centres unmarked), the “hERG current change (%, negative = inhibition) at 10uM” value is on record as 15.7%. As for `O=C([O-])c1ccc(N(Cc2ccccc2)S(=O)(=O)c2ccccc2)cc1.[Na+]`, the figure is 4.28%.

Consider `NC1=C(O)C(=O)C(c2ccccc2)O1` (centres unmarked), for which the “hERG current change (%, negative = inhibition) at 10uM” value was found to be 21.5%. As for `O=C(Nc1nccs1)C1CCCCN1S(=O)(=O)c1ccccc1` (centres unmarked), the “hERG current change (%, negative = inhibition) at 10uM” value worked out at 4.8%. Regarding `COc1ccc(-c2nc(C(=O)NCCCN3CCOCC3)cc3c2[nH]c2ccccc23)cc1OC`, the “hERG current change (%, negative = inhibition) at 10uM” value was -72.2%.

In the case of `CC(=O)N1CCc2cc(S(=O)(=O)CCC(=O)N3CCN(C(=O)c4ccco4)CC3)ccc21`, the “hERG current change (%, negative = inhibition) at 10uM” value is 2.25%. With `CCOC(=O)c1cnc2c(c(C)nn2CC)c1NC1CC1`, the “hERG current change (%, negative = inhibition) at 10uM” value is given as 12.5%.

As to `O=C(Nc1nnc(-c2ccco2)s1)C1CCCCC1`, the “hERG current change (%, negative = inhibition) at 10uM” value is recorded as -5.43%. Then `CCOc1ccc(NC(=O)COc2cccc3c2CCN(Cc2cccnc2)C3=O)cc1`, with -44.3%; and `CCCCC1CC(/C(C)=N/NC(N)=O)OC1=O` (centres unmarked), with -6.35%; and `CC(C)C(NC(=O)c1ccc(C(C)(C)C)cc1)C(=O)Nc1cccc(S(N)(=O)=O)c1` (centres unmarked), with 3.85%. Consider `Cc1[nH]c2ccc3ncccc3c2c1C`, for which the “hERG current change (%, negative = inhibition) at 10uM” value was determined as 12.7%. With `C=CCNC(=S)Nc1cccc2ccccc12`, the “hERG current change (%, negative = inhibition) at 10uM” value is given as 1.64%. In the case of `Cc1ccc(NC(=O)c2ccc(-n3cccn3)nc2)cc1`, the “hERG current change (%, negative = inhibition) at 10uM” value is reported as 2.12%. `O=C(NC1CCCCCC1)c1cc(=O)[nH]c2ccc(S(=O)(=O)N3CCOCC3)cc12`: the “hERG current change (%, negative = inhibition) at 10uM” value is on record as 1.12%. As to `CCn1c2c(c3ccc(OC)cc31)CCCC2=O`, the “hERG current change (%, negative = inhibition) at 10uM” value is given as -1.39%. Turning to `O=C(NCCCO)C(=O)NCC(c1ccc2c(c1)OCO2)N1CCN(c2ccc(F)cc2)CC1` (centres unmarked), the “hERG current change (%, negative = inhibition) at 10uM” value was -41.4%. As for `CC(N)C(=O)OC(C)(C)Cc1ccc(Cl)cc1.Cl` (centres unmarked), the figure is -4.87%.

Values taken from publication PMC4336329 (PLoS ONE, 2015).
